Consider 89 sequences from the supplement of paper PMC11417369.

The other results are listed elsewhere or left out.

This test concerns PfSIP2 AP2 domain 1 (GST-tagged). As to the kind of experiment: gcPBM binding intensity (ln(normalized median fluorescence intensity)); higher = stronger DNA binding. In outline: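 The highest Masliner-normalised natural-log median intensity across replicate spots of either probe orientation is reported as binding intensity. GST-tagged P. falciparum DNA-binding domains expressed in E. coli were applied for 1 h to an Agilent 4 × 180k array of primer-extended double-stranded 36-bp intergenic genomic probes plus negative controls, and bound protein was detected with Alexa488 anti-GST antibody and scanned at 488 nm.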
On to “TAATATATAAATATATGTACATAATAAATAGGATAT [XGTACX_site3661]”, for which the “gcPBM binding intensity (ln)” value stood at 7.16.

With “ACTTCATAGGTTACCTGTACATATAAGGAGTTATCA [XGTACX_site4110]”, the “gcPBM binding intensity (ln)” value stood at 7. For the sequence “TACGCGAAATGAATATGTACATATATGAGGGCATAT [XGTACX_site4293]”, the “gcPBM binding intensity (ln)” value amounted to 7.05.

As to “GGAAACCCTCCCAAATGTACTTTTATAAAAAAATAC [XGTACX_site5502]”, the “gcPBM binding intensity (ln)” value stood at 7.13. For the sequence “TATACTCAGAAACACACACACACACCCAAAAAAAAA [CACACA_site4434]”, the “gcPBM binding intensity (ln)” value was determined as 7.3. Next, “TTTGCCATAAAACACACACACATGTAAACCCCCTTT [CACACA_site1646]”: 7.57; “ATATAAGTACATATAACACACATATATTATAAGTAT [CACACA_site2647]”: 7.3. With “AAAAAAAAAAAAAAAACACACATACACCCAGACACA [CACACA_site5807]”, the “gcPBM binding intensity (ln)” value came out at 7.64. Next, “ATACATATATAAATATGTACACACATATGTATGATC [XGTACX_site8219]”: 6.99. As for “GATATAAGGGTATGAAGTACATAAATATTTTATGCT [XGTACX_site1886]”, the “gcPBM binding intensity (ln)” value is 6.98. Next, “TTTTTATTTTTTGTCTGTACATATATAAATTTATTA [XGTACX_site1525]”: 7.22; “TATGCACGCGAACACACACACACAACTAAAAAATAA [CACACA_site7251]”: 7.45. As for “TATATTCTTTTAAACAGTACACACACACATATATAT [XGTACX_site1701]”, the “gcPBM binding intensity (ln)” value came to 7.55.

Take “AATATAAAAATATAAAAACACACGTAAAAAAATTTA [CACACA_site3399]”: the “gcPBM binding intensity (ln)” value was 6.98. Next, “TTTTATTTATAATATATACACACTAACATTATTTAT [CACACA_site1284]”: 6.87; “GAATATTTATCATGGGGTACCTTAAAAAAGGGAAAA [XGTACX_site298]”: 6.93. Next, “ATATCTTAAATTATTTGTACATATATATATATATAT [XGTACX_site8034]”: 9.13.

With “AATATAAACCCAAACACACACATATATATATATATA [CACACA_site268]”, the “gcPBM binding intensity (ln)” value stood at 9.29. Consider “TTTTTTTTTTTGAGGAGGACACAAAAATATGCTACC [XGTACX_site756]”, for which the “gcPBM binding intensity (ln)” value turned out to be 7.31. Next, “TTAACGCTTATTTTTTGTACTTATTTTATTTTAAAT [XGTACX_site3977]”: 7.22. Next, “CAACATTAATATAAAGCACACATATATATAATATAT [CACACA_site8064]”: 6.98; “ACTCTATAATAAAATACACACAAGACTATCTAATAT [CACACA_site1796]”: 7.21; “ATATATACATATAATTGTACTTGTGTTGTTTTTCTT [XGTACX_site1870]”: 7.19. Next, “TGTAGATATTATATATGTACGCATATGAAATATATA [XGTACX_site1586]”: 6.86; “TAATTATATAAATATTGTACAAAAAAAATATATATA [XGTACX_site3137]”: 7.19. Consider “TTCAAAATATATATTTGTACATATAGGATCTTTTTC [XGTACX_site4500]”, for which the “gcPBM binding intensity (ln)” value was determined as 6.89. Next, “AAAATATATAATATAACACACATATATTCTATATGG [CACACA_site4044]”: 6.91. Next, “GTAATATCAATATAAAGTACACACTATAGTATGTAT [XGTACX_site4714]”: 6.98; “TCTTTTTTTTTTTTTTTTTTTTTTTTTTTTTTTTTT [GTGCAC_negctrl_site18]”: 9.1. For the sequence “ATTTTAATGACATATACACACAAAGGTTCATAACAA [CACACA_site5664]”, the “gcPBM binding intensity (ln)” value worked out at 6.91. Next, “ATAAAACCAACATAGAGTACAGATCGACTATGTTTC [XGTACX_site4329]”: 7.05; “TTTTCTTTTTAAATTACACACACATATATATATGTA [CACACA_site9172]”: 7.05; “AAAAAAGAAAAGAAATGTACAGAGCTTATCTTTTTA [XGTACX_site5677]”: 6.43.

As to “TTCAATTTTACATGTAGTACATAAATTATACACAAA [XGTACX_site4946]”, the “gcPBM binding intensity (ln)” value was 7.49. Take “TTATTCCTATTTGGATGTACATTTTAATATAAACAT [XGTACX_site4386]”: the “gcPBM binding intensity (ln)” value was found to be 6.93. Next, “TTTTTTAATTTTACATGTACATACAGGTTTTTTTTT [XGTACX_site4539]”: 7.05; “AATGATAAAAATAAATGTACAGAATGATATTTTTTT [XGTACX_site5976]”: 7.02. As to “ATTAATAAATAAATGACACACACACCCACAAAAAAA [CACACA_site8839]”, the “gcPBM binding intensity (ln)” value amounted to 7.17. Next, “AAAAAATTGTTTCCCTGTACTCAAAAAAAAAAAAAA [XGTACX_site8070]”: 7.11.

On to “TAAAATTTACGGTCTTGTTGCGCAACCAACATTGTC [CACACA_negctrl_site1175]”, for which the “gcPBM binding intensity (ln)” value was 6.94. As to “TAATAATAGTAAATATGTACATATATATATATATAG [XGTACX_site4602]”, the “gcPBM binding intensity (ln)” value was 7.52. Consider “GTTTTTTTTTTTTTGGTGCGTCATTTTCAAAAGAAG [GTGCAC_site9745]”, for which the “gcPBM binding intensity (ln)” value amounted to 9.53. Next, “GTATGTATGTATGTATGTACTTATTTATTTATTTAT [XGTACX_site1921]”: 8.21; “TAAATTTAAAATGACACACACTAAAATTATTTAAGT [CACACA_site4816]”: 6.84. Next, “ACCTTTAATATATACACACACATAAAAAAAATATAT [CACACA_site1843]”: 7.83. Next, “AAATATTCATAGTATACACACATTTATTTATAACCA [CACACA_site6502]”: 6.9; “TAAAAGTATTCCTTTTGTACATATAATGAAAACAAT [XGTACX_site2069]”: 6.8; “CTGTTTTTACTAAGTTGTACAAATGATGATACCCTA [XGTACX_site630]”: 7.58. For “ATACAATAATATAAATGTACAAATTATATCTTAATT [XGTACX_site6004]”, the “gcPBM binding intensity (ln)” value came out at 6.98. Next, “CTATATTTTTAAAAATGTACTTTATAATAAAATACT [XGTACX_site3593]”: 7.15. Next, “ATTTAAAATAGAAGTTATATTTATATGGGTGAAAAA [GTGCAC_negctrl_site296]”: 6.97; “GGAATAACCGGACACACACACACATATATATATATA [CACACA_site5874]”: 9.37.

For “TTATTCATACAATATCGTACATATATATATATATAT [XGTACX_site1185]”, the “gcPBM binding intensity (ln)” value worked out at 9.59. Take “TCTAATCTGGAGAAAAGTACATAGTATCTGGTAACA [XGTACX_site2540]”: the “gcPBM binding intensity (ln)” value stood at 6.81. Next, “ATTATATATATATATACACACACATATATATATATA [CACACA_site8373]”: 9.52; “GTACACCTATAATATACACACAACAAATATGCACAT [CACACA_site6603]”: 8.84. Next, “ATCTTATATATATGTGTGCACGTATATATAAGCAAT [GTGCAC_site9933]”: 9.5; TTATAAATAAAAAGAGTGCAATTATAAATATATATA: 8.97. Next, “AAAAAAATACAAATATGTACACATATATATTTAAAA [XGTACX_site4729]”: 6.9.

On to “AAATAAAATATGAACAGTACTTTTGATATAACCATT [XGTACX_site1873]”, for which the “gcPBM binding intensity (ln)” value stood at 6.9. Consider “TACACGCATAAACACACACACACACCCATATATATA [CACACA_site8114]”, for which the “gcPBM binding intensity (ln)” value is 7.6.

“TTTATATTTAAAGAAACATGCATTTATCATATATAC [TGCATGCA_site173]”: the “gcPBM binding intensity (ln)” value was 7. Next, “CAATTTATAAAGAAAACACACATATACCTATATACA [CACACA_site6710]”: 6.84; “TCTATAATATTTTTCACACACCATTTCCTTAAACAC [CACACA_site6747]”: 7.26. Next, “TTTGTTGACGAACACACACACATACATATTTATATA [CACACA_site7141]”: 7.18; “AAAAAAATAAAATACAAAATGGCTATACAAAATAAA [GTGCAC_negctrl_site535]”: 6.93. Next, “ATTTTTTTATTTTGAAGTACATAAACTTTATATATA [XGTACX_site1746]”: 7.54; “ATTACATATGTCGCTTGTACGCATAATTTTTTTATA [XGTACX_site5782]”: 7.27.

As to “ATTTAAAAAAAAAGACGTACATTTATATAGAATCCT [XGTACX_site6457]”, the “gcPBM binding intensity (ln)” value was 7.04. Next, “AAAAAATATACATATTGTACATTTTTTATTAACACA [XGTACX_site6415]”: 7.07; “ATAAATTTACATTTTTTTTTTTTTTTTTTTTTTTTT [GTGCAC_negctrl_site689]”: 8.6; GTATAGTACAAATAAGTGCATATAAAAGAAATACAG: 8.56.

Consider “TAATTTTTATTCAGTTCACACACGCTTTAATATTAT [CACACA_site9147]”, for which the “gcPBM binding intensity (ln)” value stood at 6.89. Next, “ATTACCAAAAAAAGGTGTACAAATATAATTATGAAA [XGTACX_site44]”: 7.58; “TTTTCCTTTCACAATGGTACACAAATATACATGCAA [XGTACX_site7244]”: 7.26.

As to “ATTTTTTTTCGTAATTGTTCTTAATGTTGAATTATA [CACACA_negctrl_site1135]”, the “gcPBM binding intensity (ln)” value turned out to be 7.06. For “TAGTAATATGTATCCATACACACATACATTTTATTT [CACACA_site873]”, the “gcPBM binding intensity (ln)” value is 6.95. With “AGCTATATAAATAATACATGCATTGTTCAGGTATTT [TGCATGCA_site964]”, the “gcPBM binding intensity (ln)” value is 6.83. Next, ATTTATAATATTCAAGTGCATATATATTTTTTACTT: 8.31; “TACATAAATTAATAGTCACACACGTATTTTTTATAT [CACACA_site8806]”: 6.87. Next, “TAGTTCCTCAAAAATTTCCTTTGTCATTTTATTCAC [GTGCAC_negctrl_site20]”: 6.73; “TAAAGAAATTCTTCATGTACTTATTATTTCTCTTTT [XGTACX_site6817]”: 6.81; “GTTATACAAAATAATACATGCATGTCCTACATATAT [TGCATGCA_site320]”: 7.07. “TATGGAATAAATTTATCCATACATCTTATAACATAT [XGTACX_negctrl_site500]”: the “gcPBM binding intensity (ln)” value was found to be 6.78. Take “TGTATTCCTTTTTATAGTACAATTTAAAAGTATAAA [XGTACX_site2045]”: the “gcPBM binding intensity (ln)” value was 7.33.

On to “GTACGTTTCTCCAGACTGCACTATACGACTCGTACA [GTGCAC_site9771]”, for which the “gcPBM binding intensity (ln)” value came out at 8.21. Next, “AGAAAGATGCAAGAAACATGCAAAAAAAAAATTTCT [TGCATGCA_site725]”: 6.64.

On to “CACAAATATACAAATACACACAAATATACTCATATA [CACACA_site5339]”, for which the “gcPBM binding intensity (ln)” value is 6.87. Next, “AAAAAATTATATAATAATAGAACTATACATTTTATT [GTGCAC_negctrl_site645]”: 6.71.
